# From the supplement of paper PMC3334620
# The full ranking holds about 33,000 sequences; the median of “E-score (-0.5 to 0.5)” is about -0.021, and the highest 2% start at about 0.32. The list shows a part of the results.
# Molecular target: T1, Zap1 (UniProt P47043)
# T1 sequence: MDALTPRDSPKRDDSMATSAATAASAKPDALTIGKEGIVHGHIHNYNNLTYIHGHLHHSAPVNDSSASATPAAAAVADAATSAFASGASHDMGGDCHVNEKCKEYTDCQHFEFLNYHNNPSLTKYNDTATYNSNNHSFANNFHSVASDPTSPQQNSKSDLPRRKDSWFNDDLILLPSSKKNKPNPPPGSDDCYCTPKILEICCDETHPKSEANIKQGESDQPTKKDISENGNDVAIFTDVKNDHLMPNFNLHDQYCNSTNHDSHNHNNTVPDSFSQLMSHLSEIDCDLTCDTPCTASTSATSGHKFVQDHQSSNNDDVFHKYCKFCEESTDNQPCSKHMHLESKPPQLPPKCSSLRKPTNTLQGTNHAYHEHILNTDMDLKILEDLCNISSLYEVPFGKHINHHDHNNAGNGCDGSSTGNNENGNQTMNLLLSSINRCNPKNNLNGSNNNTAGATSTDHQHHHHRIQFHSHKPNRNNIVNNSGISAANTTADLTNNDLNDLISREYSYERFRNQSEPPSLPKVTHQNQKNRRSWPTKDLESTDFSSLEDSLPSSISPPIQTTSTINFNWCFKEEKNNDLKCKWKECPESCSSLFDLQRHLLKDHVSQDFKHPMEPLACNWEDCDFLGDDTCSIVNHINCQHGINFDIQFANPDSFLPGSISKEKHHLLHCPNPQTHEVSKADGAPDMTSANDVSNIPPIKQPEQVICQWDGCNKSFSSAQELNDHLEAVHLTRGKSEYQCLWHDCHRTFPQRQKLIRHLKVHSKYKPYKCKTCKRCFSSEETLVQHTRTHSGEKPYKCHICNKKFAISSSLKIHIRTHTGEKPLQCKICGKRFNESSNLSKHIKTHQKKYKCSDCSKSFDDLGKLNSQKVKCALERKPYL
# Test: PBM E-score (8-mer binding enrichment) (E-score (-0.5 to 0.5)); higher = stronger / more preferred TF binding; most listed sequences are background and not binding sites
# Conditions: protein concentration: 200 nM; construct: GST-full length
# In short: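 GST-tagged yeast TFs (full-length or DNA-binding domain) were made by PURExpress in vitro transcription/translation and applied at about 100-200 nM to universal all-10-mer Agilent arrays. The arrays were made double-stranded by primer extension, on fresh or once-stripped slides. Bound protein was detected with fluorescent anti-GST, and scans were normalised with masliner. Each ungapped eight-base word, pooled with its reverse complement, received an E-score (modified Wilcoxon-Mann-Whitney statistic) from the Universal PBM Analysis Suite.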
row,Sequence,PBM E-score
1,AGTTACAT,-0.0596
2,CGTGGCGC,-0.252
3,AAACGTAA,0.0854
4,ATATCACA,0.0153
5,AGATGGTA,0.107
6,CACGGGTA,0.237
7,CAAGGGAC,-0.0499
8,AGCGTCTG,-0.138
9,ACCCTTAG,0.432
10,ATCGTTCC,-0.259
11,TATTCAGA,0.11
12,CTTAGCGC,-0.0118
13,CAGTAAGG,-0.0101
14,AAACGAAT,0.123
15,AGAACGAC,-0.0104
16,ACCGTGCT,0.0216
17,GGACCGCC,-0.0875
18,CTCCTGAC,-0.0951
19,TCGGATCA,0.00696
20,CGCTCGAC,-0.185
21,CAGGTATG,0.0951
22,AGTATTGG,-0.0741
23,GAGTTCAC,0.025
24,AAAAAGCA,0.0246
25,TACCAATA,0.0646

row,Sequence,PBM E-score
1,AAAGGATG,0.0533
2,AAAGTCAC,-0.0296
3,CCACATAG,-0.0478
4,TCACTACA,0.091
5,CCCCCTAA,-0.277
6,AACTTCAC,0.117
7,CCCTTTCG,0.0237
8,AGGCTAGC,-0.246
9,AGTTCTAG,0.0413
10,AACTGGGG,0.0402
11,CAGCCAAG,-0.242
12,ATGTAACG,0.0833
13,AAAGACAC,0.0889
14,ATACTACC,0.212
15,CGAACAAC,0.282
16,ATAATACA,0.287
17,CGTCAGCC,-0.117
18,GATGAACC,0.141
19,GATGGGCC,-0.145
20,ATAGTCCG,-0.0936
21,AGTCATAG,-0.108
22,TGAACACA,0.0543
23,GATGGCTA,-0.113
24,TAAGAGAA,-0.0973
25,CTTTCGAA,0.0121

row,Sequence,PBM E-score
1,ATAGGTAC,0.36
2,AGACCATG,0.129
3,ACCTAGGG,0.119
4,AATTCCCA,-0.0786
5,GTTAGAGA,-0.0542
6,CTCTACTC,-0.0848
7,AAACTAGA,0.00397
8,AGAACTTA,0.0139
9,GGGATCCA,-0.154
10,CACGTCAC,0.0546
11,CGTGTAGA,-0.0575
12,TGCGAGCA,-0.288
13,CAATATAA,0.103
14,CGTACGGC,-0.2
15,ATATAACG,0.183
16,AAGAGTCG,0.0105
17,AGGTGACG,0.182
18,CCCGAGAA,0.0545
19,ATACCCAG,0.05
20,ATTGAACA,-0.106
21,ACGGCTAG,-0.13
22,CCTGATGC,-0.102
23,AACCCATT,0.276
24,GGTGACTA,0.172
25,ACTGTATG,0.0496

row,Sequence,PBM E-score
1,CGGCCAGA,-0.035
2,GGGTCCCA,0.027
3,CCGGCACG,-0.00897
4,CGGCTAAG,-0.101
5,CTCGAGGC,0.0131
6,AAAGCTAG,-0.19
7,CCCCGCAG,0.0731
8,ACGAAAAA,0.207
9,CCTCTATA,-0.0329
10,CGCAGCGA,-0.0525
11,CGCGCGTC,0.179
12,ATTGTCGC,-0.127
13,ATATGAGG,-0.0922
14,AAGCAGTG,-0.0232
15,CGAAGCCC,-0.254
16,GGCCACAA,0.248
17,GAAACGGA,-0.0221
18,CGCAGGCC,-0.0704
19,AGTCGGGC,-0.093
20,ACTGCTCC,-0.0486
21,GGAGCTGA,-0.183
22,AACGCGTG,0.0993
23,CTTAAAAA,0.193
24,AGGTTCAG,0.11
25,CTTCCTCC,-0.236

row,Sequence,PBM E-score
1,AAGTCACC,-0.0374
2,CTAAGCTA,-0.0153
3,ACGTCGGA,-0.12
4,ACAGCTGA,0.00506
5,AGAATTAT,-0.134
6,CGCGCCGC,-0.0825
7,CATGGACG,0.0405
8,CTGTGCCA,-0.202
9,CGCTCCCG,-0.259
10,ACCAACCC,0.233
11,CTTAGATC,0.0336
12,CTGAACAA,0.0791
13,CGAAATCG,0.0146
14,AAGGGTAA,0.393
15,GATGGTCA,0.158
16,CCGAACGC,-0.0556
17,ACACGAGG,0.17
18,AAATCAGG,-0.041
19,CCAGAGGA,0.0119
20,CCTCCGAG,0.0452
21,TGCAAGAA,0.0291
22,GAATGGAA,0.0161
23,GGATCGGA,-0.277
24,TCTGCACA,-0.0923
25,GACTGTTA,-0.0543

row,Sequence,PBM E-score
1,CTGTTCCA,-0.113
2,AAGCAGGC,-0.296
3,ATCATCCG,-0.171
4,GACGGCCC,-0.15
5,ACCCGGCT,0.057
6,TCGGCACA,-0.0863
7,CCGAGTTA,-0.0277
8,ATGGGTGC,-0.109
9,CTTCGTGA,0.0345
10,AGGAGTCC,-0.0783
11,AGGATCTC,-0.172
12,AAACACTC,0.101
13,CAACCGAC,0.0135
14,CTGCACAA,0.00356
15,AGCACACA,-0.0404
16,ATTTGATG,0.0551
17,CCACCATA,-0.00272
18,ACGCTCTG,-0.228
19,GTCTCCCA,-0.252
20,ACATTCAC,-0.0724
21,CGAAGATA,0.0453
22,ACGTTAAC,0.0746
23,AGAAGGGG,-0.116
24,CATCCTTA,-0.109
25,CCTGCGCG,-0.078

row,Sequence,PBM E-score
1,CCGCCTCA,-0.165
2,ATTGACTA,-0.0924
3,CCAGGGAG,-0.229
4,CTCTTGGA,0.138
5,GAAATCTC,-0.0874
6,GGCCGTCA,0.0979
7,GTGCACGA,0.0644
8,GGAGTGAC,-0.00521
9,CAGAGAGG,-0.279
10,CCTTCTCG,-0.0939
11,ATGATATG,-0.0173
12,CAGTAGTC,-0.331
13,ACTTTGAA,-0.0276
14,GTCGAACA,0.101
15,CACCGCTC,-0.244
16,ATCACCAC,0.232
17,ATAAGGGC,-0.0859
18,ACTTAGCG,0.0173
19,AGGCAAAC,0.121
20,AATCTAAA,0.0847
21,CTGATATC,-0.146
22,AGATGAGA,-0.00937
